Counter-ions that a name gives are not always drawn. Some of the results follow. Rule as the data show it: active = 0.5 or less and inactive = the rest. Many values rest on one well or one pass, so single values are uncertain.
Legend:
Conditions in all cases: 50 µM; 24 h
[1] = system: HeLa VPS33A reporter cells; assay: relative cell viability (CellMask signal) vs DMSO (fraction of DMSO); higher = less cytotoxic;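 also: primary screen of an FDA-approved drug library in HeLa reporter cells in 96-well format, CellMask signal normalized to DMSO-treated wells set as 1, under 0.5 deemed highly cytotoxic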
[2] = system: HeLa VPS33A R498W KI + HA-SDC1-FLAG; assay: relative GAG core protein HA-SDC1 amount per cell number vs DMSO (fraction of DMSO); higher = more SDC1 (GAG core protein);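 also: HA-SDC1 level read out by In-Cell Western staining with an anti-HA antibody against the N-terminal tag, screening FDA-approved library drugs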
[3] = system: HeLa VPS33A KO + NLuc-VPS33A R498W; assay: relative mutant VPS33A R498W amount (NanoLuc luminescence) vs DMSO (fraction of DMSO); HeLa model of a glycosaminoglycan (GAG) storage disease; KI is knock-in and KO knock-out; SDC1 is syndecan 1; higher = higher mutant VPS33A level;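 also: screen of an FDA-approved drug library, NanoLuc luminescence read after lysing the treated cells, taken as a measure of mutant VPS33A protein stability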

SMILES	relative cell viability [1]	relative GAG core protein HA-SDC1 amount per cell number [2]	relative mutant VPS33A R498W amount [3]
S=P(N1CC1)(N1CC1)N1CC1	1.17	inactive: 0.647	0.863
N[C@@H]1CONC1=O [D-Cycloserine]	0.944	inactive: 0.955	1.19
O=S(=O)(O)CCSSCCS(=O)(=O)O [Dimesna]	0.991	inactive: 1.26	1.48
CCC(=O)O[C@]1(C(=O)CCl)[C@@H](C)C[C@H]2[C@@H]3C[C@H](F)C4=CC(=O)C=C[C@]4(C)[C@@]3(F)[C@@H](O)C[C@@]21C [Halobetasol Propionate]	0.833	inactive: 1.16	0.85
CC[C@H](C)[C@@H]1NC(=O)[C@H](Cc2ccc(O)cc2)NC(=O)[C@@H](N)CSSC[C@@H](C(=O)N2CCC[C@H]2C(=O)N[C@@H](CC(C)C)C(=O)NCC(N)=O)NC(=O)[C@H](CC(N)=O)NC(=O)[C@H](CCC(N)=O)NC1=O [Oxytocin]	0.974	inactive: 0.826	1.29
CC(=O)/N=c1/sc(S(N)(=O)=O)nn1C [Methazolamide]	0.956	inactive: 1.23	1.13
CC(=O)OCC(=O)NCCCOc1cccc(CN2CCCCC2)c1 [Roxatidine Acetate HCl]	1.04	inactive: 1.24	1.48
CN(Cc1ccc(C(C)(C)C)cc1)Cc1cccc2ccccc12 [Butenafine HCl]	1.01	inactive: 0.641	0.645
O=C(Nc1ccccc1)c1ccccc1O [Salicylanilide]	0.928	inactive: 0.551	0.522
CCN[C@H]1CN(CCCOC)S(=O)(=O)c2sc(S(N)(=O)=O)cc21 [Brinzolamide]	1.06	inactive: 0.907	1.14
CN1[C@@H](CC(=O)c2ccccc2)CCC[C@H]1C[C@H](O)c1ccccc1 [(-)-Lobeline hydrochloride]	1.13	inactive: 0.711	1.08
CO[C@H]1/C=C/O[C@@]2(C)Oc3c(C)c(O)c4c(O)c(c(/C=N/N5CCN(C)CC5)c(O)c4c3C2=O)NC(=O)/C(C)=C\C=C\[C@H](C)[C@H](O)[C@@H](C)[C@@H](O)[C@@H](C)[C@H](OC(C)=O)[C@@H]1C [Rifampin]	1.07	inactive: 0.75	0.993
C[C@H]1C[C@@H]2[C@H]([C@@H](O)C[C@@]3(C)[C@H]2CC[C@]3(O)C(=O)COC(=O)CCC(=O)O)[C@@]2(C)C=CC(=O)C=C12 [Methylprednisolone Sodium Succinate]	1.1	inactive: 1.16	1.07
COc1nc2ccc(Br)cc2cc1[C@@H](c1ccccc1)[C@@](O)(CCN(C)C)c1cccc2ccccc12 [Bedaquiline]	0.63	active: 0.299	0.5
CNC[C@H](O)[C@@H](O)[C@H](O)[C@H](O)CO [Meglumine]	1.01	inactive: 0.884	1.19
CCCCc1ncc(/C=C(\Cc2cccs2)C(=O)O)n1Cc1ccc(C(=O)O)cc1 [Eprosartan Mesylate]	0.899	inactive: 1.08	1.28
O=C(O)c1cc(=O)[nH]c(=O)[nH]1 [Orotic acid]	1.36	inactive: 0.816	0.798
CC1(C)S[C@@H]2[C@H](NC(=O)[C@H](NC(=O)N3CCN(S(C)(=O)=O)C3=O)c3ccccc3)C(=O)N2[C@H]1C(=O)O [Mezlocillin Sodium]	0.916	inactive: 0.929	1.43
CC(C)(OCc1nn(Cc2ccccc2)c2ccccc12)C(=O)O [Bindarit]	0.95	inactive: 0.88	1.45
NCCCC(N)(C(=O)O)C(F)F (racemic) [DL-α-Difluoromethylornithine (hydrochloride hydrate)]	1.1	inactive: 0.798	1.17
Cc1ccccc1C(OCCN(C)C)c1ccccc1 (stereo not drawn) [Orphenadrine Citrate]	1.01	inactive: 0.569	0.65
COc1cc(C(=O)NS(=O)(=O)c2ccccc2C)ccc1Cc1cn(C)c2ccc(NC(=O)OC3CCCC3)cc12 [Zafirlukast]	0.904	active: 0.315	0.217
Nc1[nH]cnc2ncnc1-2 [Adenine sulfate]	0.896	inactive: 1.33	0.907
C/C=C\c1ccc(OC)cc1 [cis-Anethol]	0.853	inactive: 0.557	0.755
C=CC1=C(C(=O)O)N2C(=O)[C@@H](NC(=O)/C(=N\OCC(=O)O)c3csc(N)n3)[C@H]2SC1 [Cefixime]	0.911	inactive: 0.928	1.83
O=C(O)Cc1ccccc1Nc1c(Cl)cccc1Cl [Diclofenac Diethylamine]	1.06	inactive: 0.824	0.956

SMILES	relative cell viability [1]	relative GAG core protein HA-SDC1 amount per cell number [2]	relative mutant VPS33A R498W amount [3]
CN(C)CC(c1ccc(O)cc1)C1(O)CCCCC1 (stereo not drawn) [Desvenlafaxine Succinate]	1.02	inactive: 0.803	1.14
CC(=O)[C@H]1CC[C@H]2[C@@H]3CC=C4C[C@@H](O)CC[C@]4(C)[C@H]3CC[C@]12C [Pregnenolone]	1.18	inactive: 1.33	1.2
COc1ccc(C2CNC(=O)C2)cc1OC1CCCC1 (stereo not drawn) [Rolipram]	0.992	inactive: 1.19	1.11
COc1ccc2c3c1O[C@H]1C[C@@H](O)C=C[C@@]31CCN(C)C2 [Galanthamine HBr]	1.13	inactive: 1.12	1.17
COc1cc([C@@H]2c3cc4c(cc3[C@@H](O[C@@H]3O[C@@H]5CO[C@@H](c6cccs6)O[C@H]5[C@H](O)[C@H]3O)[C@H]3COC(=O)[C@H]23)OCO4)cc(OC)c1O [Teniposide]	0.505	active: 0.453	6.6
O=C(O)CCCCCCCC(=O)O [Azelaic Acid]	1.01	inactive: 0.917	1.36
CN1c2c([nH]c(N)nc2=O)NC[C@@H]1CNc1ccc(C(=O)N[C@@H](CCC(=O)O)C(=O)O)cc1 [Levomefolate calcium]	1.08	inactive: 1.38	1.43
O=C(O)c1cn(C2CC2)c2cc(N3CCNCC3)c(F)cc2c1=O [Ciprofloxacin (hydrochloride)]	0.961	inactive: 0.766	1.08
CCCC(CCC)C(=O)O [Valproic acid sodium salt (Sodium valproate)]	1.06	inactive: 1.27	1.08
CN[C@@H]1[C@H](O)[C@H](NC)[C@H]2O[C@@]3(O)C(=O)C[C@@H](C)O[C@H]3O[C@@H]2[C@H]1O [Spectinomycin (hydrochloride hydrate)]	0.998	inactive: 0.863	1.35
N[C@@H](CCC(=O)N[C@@H](CS)C(=O)NCC(=O)O)C(=O)O [L-Glutathione Reduced]	1.03	inactive: 1.03	1.04
C[C@]12CCC(=O)C=C1C=C[C@@H]1[C@@H]2CC[C@@]2(C)[C@H]1CC[C@@]21CCC(=O)O1 [Canrenone]	1.18	inactive: 0.572	0.682
CCOc1cc([C@@H](CS(C)(=O)=O)N2C(=O)c3cccc(NC(C)=O)c3C2=O)ccc1OC	1.08	inactive: 1.06	1.57
N=C(N)NC(=N)NCCc1ccccc1 [Phenformin HCl]	1.36	inactive: 0.867	0.985
Oc1ccc(OC2CCCCO2)cc1 (stereo not drawn) [Deoxyarbutin]	1.03	inactive: 0.761	1.12
O=C(O)CC(O)C(=O)O (stereo not drawn) [Malic acid]	1.01	inactive: 0.923	1.3
COc1nc(C)cnc1NS(=O)(=O)c1cccnc1-c1ccc(-c2nnco2)cc1 [Zibotentan (ZD4054)]	0.967	inactive: 1.3	1.51
CNC[C@H](O)c1ccc(O)c(O)c1 [Epinephrine Bitartrate]	1.22	inactive: 1.14	1.54
O=C1C[C@@H](c2ccc(O)c(O)c2)Oc2cc(O)cc(O)c21 [Eriodictyol]	0.922	inactive: 0.872	0.371
Cc1oncc1C(=O)Nc1ccc(C(F)(F)F)cc1 [Leflunomide]	1.2	inactive: 1.21	0.774
CCOC(=O)C1=C[C@@H](OC(CC)CC)[C@H](NC(C)=O)[C@@H](N)C1 [Oseltamivir phosphate]	0.891	inactive: 0.924	1.37
NS(=O)(=O)c1cc(C2(O)NC(=O)c3ccccc32)ccc1Cl (stereo not drawn) [Chlortalidone]	0.997	inactive: 0.906	1.22
CC[C@H]1OC(=O)[C@H](C)[C@@H](O[C@H]2C[C@@](C)(OC)[C@@H](O)[C@H](C)O2)[C@H](C)[C@@H](O[C@@H]2O[C@H](C)C[C@H](N(C)C)[C@H]2O)[C@](C)(O)C[C@@H](C)CN(C)[C@H](C)[C@@H](O)[C@]1(C)O [Azithromycin]	1.12	inactive: 0.759	1.19
CC(C)NCC(O)COc1ccc(COCCOC(C)C)cc1 (stereo not drawn) [Bisoprolol fumarate]	1.24	inactive: 0.902	1.31
COc1cc(NS(=O)(=O)c2ccc(N)cc2)nc(OC)n1 [Sulfadimethoxine]	0.975	inactive: 0.807	1.4

From the supplement of paper PMC12355420
